In PubChem BioAssay AID1347165 (National Center for Advancing Translational Sciences (NCATS), 2019):
“And” between values parts separate entries of the source, which are not always exact repeats. Equal values may be shown once. Hit rate of the full screen: of about 220,000 compounds, about 5,700 (2.6%) were called active. This list was built around the results that the source calls inconclusive (neither active nor inactive); the mix of calls is not that of the screen. Calls follow the shape of the dose curve; as a rule, active = well fitted inhibition curve with a large enough effect; inconclusive = small, poorly fitted or top-dose-only effect; inactive = no such curve, though single readings can be large or run the other way. Where the call is inconclusive, the potency comes from a doubtful curve fit.

What follows are compounds tested against Lysine-specific demethylase 5B (Homo sapiens) (UniProt Q9UGL1) (assay: Primary screen for KDM5B Histone Demethylases FDH-coupled qHTS). Conditions: FDH-coupled NADH fluorescence (FDH is formaldehyde dehydrogenase); activity change, negative = inhibition: at 57.7 µM (top of the series) unless noted.
How it was run: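 Coupled FDH/NAD⁺ fluorescence readout. KDM5BΔAP 200 nM final; compound titration, 10 min RT preincubation; substrate mix 12.5 µM H3K4me3, 25 µM 2-OG, 50 µM Fe(II), 100 µM ascorbate, 0.25 mM NAD⁺, 0.25 U/mL FDH; ΔRFU over 30 min.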
Also: nearly all actives have a fitted effect of over 70% in size.
For activity change, negative = inhibition in this document: 0% is about no effect.
Potency is read from the fitted curve at half-maximal effect; tags tell the direction and shape of the fitted curve.

UniProt Q9UGL1, sequence (Q9UGL1 whole entry, looked up): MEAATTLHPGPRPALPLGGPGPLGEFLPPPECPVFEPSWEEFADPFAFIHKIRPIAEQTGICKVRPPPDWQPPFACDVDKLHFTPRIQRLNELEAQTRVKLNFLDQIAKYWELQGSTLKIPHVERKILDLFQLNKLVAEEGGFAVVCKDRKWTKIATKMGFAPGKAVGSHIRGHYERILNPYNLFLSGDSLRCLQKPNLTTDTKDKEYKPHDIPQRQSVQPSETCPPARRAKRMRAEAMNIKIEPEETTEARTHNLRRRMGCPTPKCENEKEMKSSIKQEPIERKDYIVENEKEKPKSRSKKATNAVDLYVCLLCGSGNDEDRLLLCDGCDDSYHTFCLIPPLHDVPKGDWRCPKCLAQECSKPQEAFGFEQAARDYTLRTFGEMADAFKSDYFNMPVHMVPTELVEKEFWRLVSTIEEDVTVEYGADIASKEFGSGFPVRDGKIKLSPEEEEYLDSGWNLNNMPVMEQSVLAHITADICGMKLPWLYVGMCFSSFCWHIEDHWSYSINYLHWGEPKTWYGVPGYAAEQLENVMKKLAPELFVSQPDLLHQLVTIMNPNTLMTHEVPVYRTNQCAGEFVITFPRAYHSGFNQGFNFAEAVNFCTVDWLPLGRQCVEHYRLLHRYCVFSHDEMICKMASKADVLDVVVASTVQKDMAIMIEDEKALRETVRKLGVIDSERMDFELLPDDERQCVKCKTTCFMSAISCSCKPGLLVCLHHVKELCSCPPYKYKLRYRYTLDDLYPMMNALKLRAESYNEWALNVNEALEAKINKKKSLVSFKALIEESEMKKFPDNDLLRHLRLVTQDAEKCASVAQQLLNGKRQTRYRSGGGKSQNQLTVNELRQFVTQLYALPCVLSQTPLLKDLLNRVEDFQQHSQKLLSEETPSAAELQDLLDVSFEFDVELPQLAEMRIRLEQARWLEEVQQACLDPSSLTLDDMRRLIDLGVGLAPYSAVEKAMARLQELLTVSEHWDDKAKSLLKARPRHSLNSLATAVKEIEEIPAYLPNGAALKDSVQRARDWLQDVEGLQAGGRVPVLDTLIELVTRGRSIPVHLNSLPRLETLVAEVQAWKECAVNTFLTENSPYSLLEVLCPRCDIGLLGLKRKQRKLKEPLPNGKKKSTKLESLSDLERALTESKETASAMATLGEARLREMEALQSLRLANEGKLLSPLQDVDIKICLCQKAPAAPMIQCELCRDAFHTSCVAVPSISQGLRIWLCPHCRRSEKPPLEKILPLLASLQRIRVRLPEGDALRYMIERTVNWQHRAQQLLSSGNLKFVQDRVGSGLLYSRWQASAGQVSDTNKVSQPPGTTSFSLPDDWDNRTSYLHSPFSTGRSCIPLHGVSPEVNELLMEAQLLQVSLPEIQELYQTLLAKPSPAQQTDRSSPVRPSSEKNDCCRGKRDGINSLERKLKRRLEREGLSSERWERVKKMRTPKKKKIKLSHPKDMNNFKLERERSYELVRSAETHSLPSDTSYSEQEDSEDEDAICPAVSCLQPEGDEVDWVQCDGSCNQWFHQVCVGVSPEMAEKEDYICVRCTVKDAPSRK

SMILES | Potency | activity change, negative = inhibition
CCn1c(-c2ccccc2)nn(CC(=O)NCCc2ccc(C)o2)c1=O | inconclusive: 22.4 µM [inhibitor, single point] | 
O=CNc1cccc(O)c1 |  | inactive: -1.12%
Cc1ccccc1NC(=O)/C(C#N)=C/c1ccc(OC(=O)c2ccccc2)cc1 | inconclusive: 6.31 µM [inhibitor, full curve, poor fit] | 
Cc1c(C(=O)Nc2ccc(C(C)C)cc2)sc2nc3n(c(=O)c12)CCC3 | inconclusive: 8.91 µM [inhibitor, partial curve, poor fit] | 
O=C(c1ccc(C(F)(F)F)cc1)N1CCC2(CC1)CN[S+](=O)([O-])c1cccnc1O2 | inconclusive: 50.1 µM [inhibitor, partial curve, poor fit] | 
CCC(O)CNc1ccc(-c2nc(COC)no2)cn1 (stereo unspecified) | active: 31.6 µM | 
Cc1nc2c(-c3ccc(F)cc3)cnn2c(N)c1-c1ccc(F)cc1 | inconclusive: 10 µM [inhibitor, partial curve, poor fit] | 
Cc1ccc(C)c(CN2C(=O)c3ccccc3S(=O)(=O)c3ccc(C(=O)NCCCN4CCCC(C)C4)cc32)c1 (stereo unspecified) | inconclusive: 28.2 µM [inhibitor, single point] | 
Cc1ccc(CN(C)CC(=O)NC(=O)NC2CCCC2)cc1 |  | inactive: 6.47%
c1ccc(-n2ncc3c(Nc4ccc5c(c4)OCO5)nc(NCC4CCCO4)nc32)cc1 (stereo unspecified) | inconclusive: 25.1 µM [inhibitor, single point] | 
Cc1nn(-c2ncccn2)c2c1C(c1ccccc1OCCc1ccccc1)CC(=O)N2 (stereo unspecified) |  | inactive: 11.8%
COc1cccc(C(=O)Nc2ccc3oc(C)nc3c2)c1OC |  | inactive: 15.4%
O=C(c1ccc2c(c1)OCO2)N1CCCC1c1nnc2n1CCNC2 (stereo unspecified) | inconclusive: 63.1 µM [inhibitor, partial curve, poor fit] | 
O=C1c2ccccc2NC(c2ccc(Br)s2)N1O (stereo unspecified) | inconclusive: 31.6 µM [inhibitor, single point] | 
COc1cc(OC)c(NC(=O)N2CC3CCCN3c3ccccc32)cc1Cl (stereo unspecified) | inconclusive: 31.6 µM [inhibitor, single point] | 
CC(CCc1ccccc1)NC(=O)[C@@H]1Cc2ccccc2CN1 (stereo partly specified) | inconclusive: 39.8 µM [inhibitor, single point] | 
COc1ccc(-c2nc(CSc3nnc(C)n4c3cc3occc34)c(C)o2)cc1OC | inconclusive: 17.8 µM [inhibitor, partial curve, poor fit] | 
CCN1c2cc(C(=O)Nc3ccc(C)c(C)c3)ccc2C(=O)N2CCCCC21 (stereo unspecified) | inconclusive: 28.2 µM [inhibitor, partial curve, poor fit] | 
COc1cc(/C=C(/C#N)c2ccccn2)ccc1OC(F)F | inconclusive: 25.1 µM [inhibitor, partial curve, poor fit] | 
N#Cc1ccc(O[C@@H]2CCOC[C@H]2NC(=O)C2(N3CCCC3)CCCC2)cc1 | inconclusive: 31.6 µM [inhibitor, single point] | 
Cc1ccc(C(c2cccc(Br)c2)c2c(C)[nH]c3ccccc23)s1 (stereo unspecified) | inconclusive: 17.8 µM [inhibitor, partial curve, poor fit] | 
CC(C)c1ccc(NC(=O)C(C)N(c2ccccc2)S(C)(=O)=O)cc1 (stereo unspecified) | inconclusive: 1.41 µM [inhibitor, partial curve, poor fit] | 

SMILES | Potency | activity change, negative = inhibition
COCCNC(=S)N1CCN(C)CC1 | inconclusive: 3.16 µM [inhibitor, full curve, poor fit] | 
N#Cc1nc(-c2ccco2)oc1N1CCN(CC(=O)N(Cc2ccccc2F)C2CC2)CC1 | inconclusive: 25.1 µM [inhibitor, partial curve, poor fit] | 
CCCCNC(=O)NC(=O)CSc1nc(-c2ccco2)nc2ccccc12 | inconclusive: 31.6 µM [inhibitor, partial curve, poor fit] | 
Cn1c(C(=O)N2CCOCC2)cc2c(=O)n3ccccc3nc21 | inconclusive: 1.78 µM [inhibitor, partial curve, poor fit] | 
Cc1cccc(OCC(=O)N(Cc2ccc(C(C)(C)C)cc2)Cc2ccco2)c1 | inconclusive: 17.8 µM [inhibitor, partial curve, poor fit] | 
C=CCOc1cccc(-c2nc(C(=O)NCc3cccc(F)c3)cs2)c1 | inconclusive: 31.6 µM [inhibitor, single point] | 
O=C(c1ccco1)N1CCN(c2cc(-c3cccs3)[nH]n2)CC1 | inconclusive: 22.4 µM [inhibitor, partial curve, poor fit] | 
O=S(=O)(O)c1ccc(-c2ncc[nH]2)cc1 | inconclusive: 100 µM [inhibitor, partial curve] | 
CN1Cc2cccn2CC1CNC(=O)c1cccs1 (stereo unspecified) | active: 20 µM | 
O=C(Nc1ccc(Cl)c(-c2nc3cnccc3o2)c1)c1cc2ccccc2o1 |  | inactive: 19.8%
O=c1[nH]c(=O)n(C2CCCCC2)c(O)c1C1=Nc2ccccc2SC(c2ccccc2)C1 (stereo unspecified) | inconclusive: 0.891 µM [inhibitor, partial curve, poor fit] | 
Cc1csc(NC(=O)Cc2ccc(OCc3c(C)noc3C)cc2)n1 |  | inactive: 9%
COc1ccc(NC(=O)CSc2nc(SC)ns2)cc1 | inconclusive: 28.2 µM [inhibitor, partial curve, poor fit] | 
COc1cccc(-c2ncc3c(n2)OCCN(c2cccc(C(F)(F)F)c2)C3=O)c1 |  | inactive: -9.86% [at 86.2 µM]
Cc1ccc(N2CCn3c2nc2c3c(=O)n(CCCc3ccccc3)c(=O)n2C)cc1C | inconclusive: 2 µM [inhibitor, full curve, poor fit] | 
O=C(NC1CC(=O)N(c2ccccc2)C1)c1ccc(S(=O)(=O)N2CCCCC2)cc1 (stereo unspecified) | inconclusive: 14.1 µM [inhibitor, partial curve, poor fit] | 
CCN(CC)c1nc2ccccc2nc1C(=O)Nc1cc(OC)c(OC)c(OC)c1 | inconclusive: 15.8 µM [inhibitor, partial curve, poor fit] | 
O=C(O)C/C(=C/c1cccc(Br)c1)c1nc2ccccc2s1 | inconclusive: 28.2 µM [inhibitor, single point] | 
N#Cc1c(NC(=O)c2ccn(C(F)F)n2)sc2c1CCCC2 | inconclusive: 39.8 µM [inhibitor, single point] | 
NC(=O)c1cccnc1OC1CCNCC1 | inconclusive: 17.8 µM [inhibitor, partial curve, poor fit] | 
CN(C)c1ccc(C(=O)N2CCCN(c3cc(-c4ccc(F)cc4)[nH]n3)CC2)cc1 |  | inactive: -8.3%
CC(C)OCCCNC(=O)c1cc2cn(C(C)C)cc2s1 | inconclusive: 14.1 µM [inhibitor, partial curve, poor fit] | 

SMILES | Potency | activity change, negative = inhibition
Cc1cccc(COC(=O)c2nn(Cc3ccccc3)c(=O)c3ccccc23)c1 |  | inactive: 12.5%
CC12CCC(C(=O)N(CCCCN3CCN(Cc4ccccc4)CC3)C1=O)C2(C)C (stereo unspecified) | inconclusive: 11.2 µM [inhibitor, partial curve, poor fit] | 
Cc1cc(NC(=O)CCc2ncc(-c3ccccc3F)o2)no1 |  | inactive: 13.1%
CCn1c(NC(=O)/C=C/c2ccc(F)cc2)nc2ccccc21 | inconclusive: 39.8 µM [inhibitor, single point] | 
O=C(NCc1ccccc1Br)c1cnc2sc(N3CCCCCC3)nn2c1=O | inconclusive: 3.55 µM [inhibitor, full curve, poor fit] | 
COc1ccc(-c2coc3cc(OCCN4CCCCC4)ccc3c2=O)cc1 |  | inactive: 14.1%
O=C(CSc1ccc(-c2ccco2)nn1)Nc1ccc(F)cc1F | inconclusive: 22.4 µM [inhibitor, partial curve, poor fit] | 
COc1cccc(C(=O)N2CC(=O)N(c3ccc(C)cc3)CC2C)c1OC (stereo unspecified) |  | inactive: 2.13%
Cc1ccc(N2CCN(C(=O)c3cnc(N4CCCCC4)c4ccccc34)CC2)c(C)c1 | inconclusive: 35.5 µM [inhibitor, partial curve, poor fit] and inconclusive: 31.6 µM [inhibitor, partial curve, poor fit] | 
COc1ccc(CC(=O)N2CCc3nc(-c4cccnc4)[nH]c3C2)cc1 |  | inactive: -2.26%
Cc1cccc(OCC2(CNCc3cnn(C)c3)C[C@@H](O)[C@@H](O)C2)n1 (stereo partly specified) | inconclusive: 56.2 µM [inhibitor, single point] | 
O=C(NCCN1CCCCCC1)C1CCC1 |  | inactive: 0.756%
CCOc1ccc(/C=C/c2nc(C#N)c(N3CCN(C)CC3)o2)cc1 | inconclusive: 1.78 µM [inhibitor, partial curve, poor fit] | 
COc1ccc(-c2nc(CSCC(=O)N3CCOCC3)c(C)o2)cc1OC | inconclusive: 17.8 µM [inhibitor, partial curve, poor fit] | 
COc1ccccc1OC(=O)COc1ccc(C)cc1Br |  | inactive: 11.3%
CCn1cc(-c2nc3cc(S(=O)(=O)NC(C)C)ccc3n2C(C)C)c(C)n1 | inconclusive: 15.8 µM [inhibitor, partial curve] | 
CCCCOC(=O)/C(C#N)=C/c1c[nH]c2ccccc12 |  | inactive: 0.562%
COc1ccc(-c2csc3ncnc(Nc4cc(OC)c(OC)c(OC)c4)c23)cc1 |  | inactive: -2.6%
O=Cc1ccc(Oc2ncnc3ccccc23)cc1 | inconclusive: 63.1 µM [inhibitor, partial curve, poor fit] | 
COc1ccc(CCNc2oc(-c3ccc(OC)c(OC)c3)nc2C#N)cc1OC | inconclusive: 6.31 µM [inhibitor, full curve, poor fit] | 
CC(C)Cc1cc(C(=O)N[C@H](C2CCNCC2)C2CC(O)C2)nc(N)n1 (stereo partly specified) | active: 22.4 µM | 
O=C(Nc1ccc(F)c(Cl)c1)N1CC=C(c2c[nH]c3ccccc23)CC1 | inconclusive: 17.8 µM [inhibitor, partial curve, poor fit] | 
